Patent US11945858B2, “Antibodies and antibody fragments against HNAV1.7 channel and their use in pain and cancer indications” (NATIONAL RESEARCH COUNCIL OF CANADA, priority 2018, dated 2024)

Legend:
CHO-3E7 = experiment: Cell-ELISA on live CHO-3E7 cells; type: cell-based, Chinese hamster; details: hybridoma supernatant, OD450 nm
[1] = test system: CFA-induced thermal hyperalgesia; experiment: Hargreaves Model of Hyperalgesia in rats; type: in vivo, rat; details: 100 μg intraplantar
[2] = test system: OD1-evoked Nav1.7-mediated spontaneous pain behaviours; type: in vivo, mouse; details: 100 μg, injected 60 minutes prior to OD1; 20 min after the injection
VHH FC5 = experiment: Surface Plasmon Resonance of mAbs, FC5 control; type: binding; details: SPR, 25 °C
[3] = test system: overlapping antigen-peptides derived from DIE3IR; experiment: ELISA of mAbs on overlapping antigen-peptides derived from DIE3IR; type: binding, human
glioblastoma U87MG cells = experiment: Soft agar assay, U87MG; details: mAb 1 μM; FIG. 24A
[4] = test system: ovarian cancer SKOV-3 cells; experiment: Soft agar assay, SKOV-3; details: mAb 1 μM; FIG. 24D
[5] = test system: glioblastoma U87MGvIII cells; experiment: Soft agar assay, U87MGvIII; details: mAb 1 μM; FIG. 24C

B1: 1B6: anti-hNav1.7 mouse monoclonal antibody, IgG1, k; heavy chain SEQ ID NO: 113, light chain SEQ ID NO: 115 (antibody, V domains shown)
VH: QVQLKESGPGLVAPSQSLSITCTVSGFSLSRYNVHWVRQPPGKGLEWLGMIWGGGSTDYNSALKSRLSISKDNSKSQVFLKMNSLQTDDTAMYYCARNGANWDWFAYWGQGTLVTVSAAKTTPPSVY
VL: DIVMSQSPSSLPVSVGEKVTMS[sequence of about 80 residues not given]FGSGTKLEIKRADAAPTVSIFPPSSV
modifications: Heavy chain of the 1B6 antibody without leader sequence; Light chain of the 1B6 antibody without leader sequence
CHO-3E7; duplicate 1
  ELISA on live cells (duplicates) CHO-3E7: −0.013
CHO-3E7; duplicate 2
  ELISA on live cells (duplicates) CHO-3E7: −0.012
[1]; 0 h
  Percentage of effect after injection (on left paw withdrawal): 0%
[1]; 1 h
  Latency paw withdrawal: 7.79 ± 0.56 s
  Percentage of effect after injection (on left paw withdrawal): 18.28% ± 4.85
[1]; 2 h
  Latency paw withdrawal: 8.08 ± 0.46 s
  Percentage of effect after injection (on left paw withdrawal): 22.20% ± 3.40
[1]; 4 h
  Latency paw withdrawal: 8.66 ± 0.45 s
  Percentage of effect after injection (on left paw withdrawal): 25.96% ± 3.69
[1]; time of maximum (1, 2 or 4 h)
  Maximum percentage of the effect (% Effect; % MPE): 25.96±3.69%
[2]
  Time spent in pain behaviors (saline plus OD1 = 100%): 94.13%±28.63
VHH FC5
  Binding to FC5 control (comment, in words): did not bind
VHH FC5; listed as IB6
  Binding to FC5 control (comment, in words): No binding
[3]
  Binding with pep #2a and pep #2b (in words): no binding
[3]; peptides coated 100-500 ng/well
  Peptide in which the binding motif resides / that is bound: pep #2
Glioblastoma U87MG cells
  Reduction of colony formation: did not affect colony formation; also recorded: no inhibitory effect
[4]
  Reduction of colony formation: did not reduce colony formation; also recorded: no inhibitory effect
[5]
  Reduction of colony formation: 53%

“Also recorded” adds a separate entry of the source.
